Screen size: about 48,000 compounds; about 120 (0.25%) were called active. About 4% were inconclusive and are not listed. Calls follow the shape of the dose curve; as a rule, active = well fitted activation curve with a large enough effect; inconclusive = small, poorly fitted or top-dose-only effect, or another doubt; inactive = no such curve, though single readings can be large or run the other way. This is one part of the list.
Assay: Primary qHTS for Identification of Small Molecule Activators of Huntingtin-Antisense Promoter Activity; also: nearly all actives have a fitted effect of over 55% in size
Settings: HEK293 HTT-AS promoter firefly luciferase reporter, 24 h; series mostly up to 57.5 µM; activity change, positive = activation: at the top concentration
Method in brief: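 HEK293 luciferase promoter-reporter cells (2,500/well) plated 24 h, then compounds added at up to 57.5 uM final for 24 h at 37 °C. Firefly luminescence by Dual-Glo, normalized to vehicle (0%) and zero RLU (-100%).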

Activity change, positive = activation, inactive:
O=C(Cc1cccs1)NC1CC(=O)N(c2cccc(F)c2)C1 (configuration not stated) -5.43%, Cn1c(=O)c2c(-c3ccc(Cl)cc3)n(Cc3ccccc3)cc2n(C)c1=O -19.5%, O=C(O)Cn1nnc(-c2ccc(OCc3cccc(C(F)(F)F)c3)cc2)n1 13.8%, COc1cccc(NC(=O)C2CCC(CNS(=O)(=O)c3ccc4c(c3)CC(C)N4C(C)=O)CC2)c1 (configuration not stated) -28.4%, CCOC(=O)c1cc(S(=O)(=O)Nc2ccc(C)cc2Cl)[nH]n1 -9.91%, O=C(CSc1nccn1Cc1ccco1)Nc1ccc(F)cc1 33.6%, COc1ccc(CNC(=O)CSc2nc3ccccc3nc2Cc2ccccc2)cc1 -28.4%, CCOC(=O)c1[nH]c(C)c(CCC(=O)NCc2ccc(N(C)C)cc2)c1C -7.21%, COc1ccc(Cn2c(CCC(=O)NCc3cccc(Cl)c3)nc3cccnc32)cc1 -9.81%, COc1cccc(/C=C/c2nc(C#N)c(NCCN(C)C)o2)c1 -9.35%, COc1ccc(S(=O)(=O)NCCc2cc3ccc(C)c(C)c3[nH]c2=O)cc1 -36.2%, COc1ccc(OC)c(NC(=O)Cn2cnc3ccc(S(=O)(=O)N4CCC(C)CC4)cc3c2=O)c1 -30.7%, CN(Cc1ccccc1)C(=O)c1ccc2c(c1)N(Cc1ccccc1F)C(=O)c1ccccc1S2(=O)=O -37%, O=C(Nc1cc(-c2nc3ccccc3s2)ccc1Cl)c1cc2ccccc2o1 30.4%, CCCOc1cccc(NC(=O)c2c(-c3ccccc3Cl)noc2C)c1 -15.5%, CN(C(=O)CSc1nc2ccc(NC(=O)COc3ccc(Cl)cc3)cc2s1)c1ccccc1 -43.6%, O=S(=O)(Nc1ccccc1C(F)(F)F)c1ccc(N2CCCCS2(=O)=O)cc1 -23.1%, COc1ccc(Cl)cc1NS(=O)(=O)c1ccc2[nH]c3c(c2c1)CCCC3 -34.5%, Cc1cccc(C)c1NC(=O)Cn1c(=O)n(Cc2ccccc2)c(=O)c2c(C)c(C(=O)N(C)C)sc21 -23.3%, Cc1cc(C)c2oc(C(=O)Nc3ccc(S(=O)(=O)N4CCCCC4)cc3)cc(=O)c2c1 -8.43%, Cc1ccc(Cl)cc1-n1c(=O)cc(N2CCN(c3ccc(F)cc3)CC2)[nH]c1=O -32.2%, Cc1ccc(-c2nc3sc(CCNS(=O)(=O)c4cc(F)ccc4F)c(C)n3n2)cc1 -12.2%, CC(=O)N(Cc1cccnc1)c1nc2c(F)cc(F)cc2s1 -12.3%, COc1cccc(CSc2nc3n(n2)C(CC(C)C)C(C(=O)Nc2ccccc2OC)=C(C)N3)c1 (configuration not stated) -20.2%, CCCCN(CC)CCCNC(=O)Cn1ncc2c3ccccc3n(C)c2c1=O -18.1%, CCOc1ccc(S(=O)(=O)N(CC(=O)NCc2ccccc2OC)c2ccccc2)cc1 -28.9%, COc1ccc(C(=O)N2CCC(C(=O)Nc3ccc(Cl)cc3)CC2)cc1 4.16%, Cc1cc(=O)n2nc(N(C)CC(=O)NCc3cccc(Br)c3)sc2n1 -5.43%, CCOc1ccc(OCC)c(NC(=O)Cn2nc(CC)n3c(cc4sccc43)c2=O)c1 -12%, Cc1ccc(/C(=C\CN2CCCC2)c2ccccn2)cc1 -9.44%, Cc1ccc(S(=O)(=O)CC(=O)Nc2sc3c(c2C(N)=O)CCCC3)cc1 -9.28%, CC(C)CCNC(=O)Nc1ccc2c(c1)N(Cc1ccccc1)C(=O)c1ccccc1S2 -30.5%, CCc1ccc(NC(=O)Cc2c(C(=O)O)c(C)cn2C)cc1 -9.39%, Cc1ccccc1Nc1c(-c2ccc(Br)o2)nc2ccc(Cl)cn12 -23.1%, COc1cc(OC)c(NC(=O)c2cc(C)nc3c2c(C)nn3-c2ccc(C)cc2)cc1Cl -6.84%, Cc1ccc(NC(=O)CCN2CCN(CCO)CC2)cc1C 7.59%, CCOc1ccc(-c2nn(CC(=O)NC3CCCC3)c3c2cnc2ccc(C)cc23)cc1 -1.7%, COc1ccc(CCNC(=O)c2ccc3c(c2)N(Cc2ccc(Cl)cc2)C(=O)c2ccccc2S3)cc1OC -27.6%, Cc1ccc(NC(=O)CN2CCSc3ccc(S(=O)(=O)N4CCCC4)cc32)cc1 -36.3%, Cc1c(CCNC(=O)c2ccco2)sc2nc(-c3ccc(F)cc3)nn12 -10.9%, CCN(Cc1nc(-c2ccc(OC)cc2)oc1C)S(=O)(=O)c1ccc(C)cc1 -28.2%, CCOC(=O)Cc1ccc(NC(=O)N2CCC(CN3CCCCCC3)CC2)cc1 -5.31%, CCOc1ccccc1Nc1nnc(-c2cc3cc(OC)ccc3oc2=O)s1 4.83%, CCN(CC)c1cc2c(cc1F)c(=O)c(S(=O)(=O)c1ccc(OC)cc1)cn2Cc1ccccc1 -29.5%, CC(=O)c1ccc(NC(=O)Cn2c(-n3nc(C)cc3C)nc(C)c(C)c2=O)cc1 -11.9%, CCc1ccc(Oc2c(C(F)(F)F)oc3c(CN4CCC(C)CC4)c(O)ccc3c2=O)cc1 -8.69%, Oc1ccc([C@@H]2Oc3ccc(O)cc3[C@@H]3CCC[C@@H]32)cc1 -75.1%, Cc1cccc(NC(=O)C2CCN(c3nc4ccccc4[nH]3)CC2)c1C -11.6%, O=C(Nc1ccc2nc(SCC(=O)N3CCCC3)sc2c1)c1cccc(Br)c1 -25.9%, Cc1ccc(C)c(CNC(=O)CCn2cccn2)c1 -1.89%, Cc1cc(C)cc(N2C(=O)CSC23C(=O)N(CC(=O)Nc2ccc(F)cc2F)c2ccccc23)c1 (configuration not stated) -17.4%, CCOCCCN1C(=O)c2[nH]nc(-c3ccccc3O)c2C1c1ccc(CC)cc1 (configuration not stated) -34.7%, CCCCc1nn2c(=O)cc(COC(=O)c3ccc(NC(=O)CCc4ccccc4)cc3)nc2s1 6%, CCOC(=O)c1oc2c(c1C)-c1nn(Cc3c(F)cccc3Cl)cc1CC2 -20.7%, Cc1nc2ccc(S(=O)(=O)N(CC(=O)Nc3cccc(F)c3)Cc3ccccc3)cc2s1 -21.8%, O=C1CC(c2ccccc2)c2c(n3ncnc3[nH]c2=O)N1 (configuration not stated) -6.16%, CC(C)CCn1c(=O)c2sccc2n2c(CCCC(=O)NCCc3ccccc3)nnc12 -1.39%, COc1ccccc1C(=O)N1CCC(c2noc(-c3ccc(S(=O)(=O)N4CCCC4)cc3)n2)CC1 -41.4%, COc1cccc(CNC(=O)c2oc3c(c2C)-c2nn(Cc4cccc(Cl)c4)cc2CC3)c1OC -33.2%, OC[C@H]1O[C@@H](OCCc2ccc(O)cc2)[C@H](O)[C@@H](O)[C@H]1O -20.8%, O=C(NCCc1ccc(Cl)cc1)c1ccc(CS(=O)Cc2ccccc2Cl)o1 (configuration not stated) -30.6%, C[C@@H](O)[C@H](N)C(=O)O -5.01% [at 25.1 µM, percent change from vehicle, -100% = no light], COc1ccc(NC(=O)Cn2c(SCc3ccc(F)cc3)nc3cccnc32)cc1OC -1.57%, CC(C)N(C)C1CCN(S(=O)(=O)c2ccc3[nH]c(=O)ccc3c2)CC1 -5.64%, O=C(Nc1nc2ccccc2s1)c1ccc(S(=O)(=O)N2CCCC2)cc1 12.2%, O=S(=O)(c1ccc2nc(NCc3ccccc3Cl)ccc2c1)N1CCCCC1 -23.4%, COc1ccc(CNC(=O)CSc2nc(-c3ccc(OC)c(OC)c3)cc(C(F)(F)F)n2)cc1 -29.3%, CC(CNC(=O)c1ccc(CSc2nc3ccncc3n2Cc2ccccc2)cc1)c1ccccc1 (configuration not stated) -24.9%, COc1cc(Cl)c(NS(=O)(=O)c2ccc(-c3cnc(C4CC4)o3)cc2)c(OC)c1 -36.5%, CCCCN(C)S(=O)(=O)c1ccc(C(=O)Nc2sc3c(c2C(N)=O)CC(C)(C)NC3(C)C)cc1 -10.5%, CCCc1ccc(-c2ccc(C(=O)Oc3ccc(OCC)cc3)cc2)nc1 4.69%, Cc1ccc(CCNC(=O)CS(=O)Cc2nc(-c3ccccc3C)oc2C)cc1 (configuration not stated) -17%, CCN(Cc1ccccc1)C(=O)Cn1c(=O)n(-c2ccc(Cl)cc2)c(=O)c2c(C)c(C(=O)N(C)C)sc21 0.82%, O=C(Cn1cnc2c(oc3ccccc32)c1=O)Nc1ccc(F)cc1F -6.95%, O=C(CSc1nc2c(oc3ccccc32)c(=O)n1Cc1ccco1)Nc1ccccc1Cl -11.6%, O=C(Cn1ncc2c3ccccc3n(Cc3cccc(Cl)c3)c2c1=O)NCc1cccs1 -7.09%, CCCc1ncc(C(=O)O)s1 2.28%, CCc1ccc(OCc2nc(-c3ccc(OC)cc3)no2)c(Br)c1 -14.5%, Cc1cccc(CCNC(=O)CCc2c(C)nc3c4c(C)cc(C)nc4nn3c2C)c1 -15.7%, COc1ccc(CNC(=O)Cn2ncc3c([nH]c4ccccc43)c2=O)cc1 -8.3%, CCc1cccc(C)c1NC(=O)Cn1c(=O)cc(C)c2c(C)nn(-c3cccc(F)c3)c21 -16.9%, COc1ccccc1N1CCN(c2cc(C)nc3nc(-c4ccc(C)cc4)nn23)CC1 -2.99%, O=C(NCc1ccc(F)cc1)c1ccc(Nc2nc3ccccc3n3nnnc23)cc1 1.08%, Cc1c(C(=O)Nc2ccccc2F)sc2ncnc(N(C)C3CCCCC3)c12 -18.8%, CCCC12CN3CC(CCC)(CN(C1)C3c1ccccc1)C2=O (configuration not stated) -5.96%, CCOC(=O)c1cc(S(=O)(=O)N2CCN(c3ccc(C(C)=O)cc3)CC2)[nH]n1 -17.4%, CCOC(=O)c1ccc(NC(=O)NCCOCCn2c(=O)oc3ccccc32)cc1 -30.9%, CCS(=O)(=O)c1nc(S(=O)(=O)c2ccc(C)cc2)c(NCCCOC)s1 -6.63%, Cc1cc2oc3c(c(=O)c2cc1C)C1(C(=O)N(C)c2ccccc21)N(CCO)C3=O (configuration not stated) -8.41%, CCn1c(CNC(=O)c2ccc(OC)cc2)nnc1SCC(=O)Nc1ccc(C)cc1 -13.1%, Nc1cc(=O)nc(SCC(=O)Nc2ccc(F)cc2)n1CCc1ccccc1 6.99% [at 11.5 µM, percent change from vehicle, -100% = no light], COc1ccc(N2CC(NC(=O)c3ccco3)CC2=O)cc1 (configuration not stated) -18.4%, O=C(Nc1ccccc1Br)C(Cc1ccccc1)NS(=O)(=O)c1cccc2nsnc12 (configuration not stated) -12%, COc1ccccc1NC(=O)C1CCN(C(=O)c2sc3nc[nH]c(=O)c3c2C)CC1 -13.3%, CC(=O)Nc1cccc(NC(=O)CN2C(=O)CCSc3ccccc32)c1 -20.3%, O=C(Nc1ccc2oc(-c3ccc(O)c(Br)c3)nc2c1)c1cc2ccccc2o1 18%, Cc1nc2nc(NC(=O)c3ccccc3F)[nH]n2c(=O)c1Cl -2.87%

Source: PubChem BioAssay AID1508624 (National Center for Advancing Translational Sciences (NCATS), 2021)
